Results on 153 variants are retold here after a collection of fitness landscapes (doi:10.1016/j.celrep.2020.107928).

Over roughly 81,000 sequences, “one-hybrid fitness for binding NBS DNA” has its median near -0.1; the highest 2% begin near 0.36. The list shows a part of the results. Where only a bound is given, the exact number is not on record here.

B1: Caulobacter ParB omega fusion; a variant is named by its letters at X, in order, B8GW30 (parent)
chain: MESVVVGEPGMSEGRRGLGRGLSALLGEVDAAPAQAPGEQLGGSREAPIEILQRNPDQPRRTFREEDLEDLSNSIREKGVLQPILVRPSPDTAGEYQIVAGERAWRAAQRAGLKTVPIMVRELDDLAVLEIGIIENVQRADLNVLEEALSYKVLMEKFERTQENIAQTIGKSXSHVANXMRLLXLPDEVQSYLVSGELTAXHARAIAAAADPVALAKQIIEGGLSVRETEALARKAPNLSAGKSKGGRPPRVKDTDTQALESDLSSVLGLDVSIDHRGSTGTLTITYATLEQLDDLCNRLTRGI

This experiment covers variants of B1. The experiment in a line: one-hybrid fitness for binding NBS DNA (the Noc-binding site; scaled: cognate 1, non-cognate 0); higher = stronger binding. Conditions: with NBS DNA site. The procedure, abridged: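 Fitness here means the log change in variant-to-wild-type read ratio between plasmids sequenced before and after selection. That scale was set so cognate equals 1 and non-cognate equals 0. The selection was a bacterial one-hybrid screen of Caulobacter ParB libraries, four specificity codons randomised, in E. coli USO carrying a HIS3 reporter with the site 19 bp from the promoter, grown 48 hours at 37°C on M9-minus-histidine with 0.1 mM IPTG and 5 mM 3-AT.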
Turning to IRMR, the “one-hybrid fitness for binding NBS DNA” value was 0.223.
In the case of HMHR it was at most 0.2; in that of VKLS, at most 0.2.
In the case of PRHT it was at most 0.2; in that of HTGM, at most 0.2.
In the case of FQRT it was at most 0.2; in that of PDWR, at most 0.2; in that of FVKS, at most 0.2.
On to YHNW, for which the “one-hybrid fitness for binding NBS DNA” value was at most 0.2.
GCKS: the “one-hybrid fitness for binding NBS DNA” value was at most 0.2.
In the case of DYRS it was at most 0.2.
As for KRYC, the figure is at most 0.2; as for QCNY, 0.297.
As for NMLD, the figure is at most 0.2; as for YKCG, at most 0.2; as for EDKT, at most 0.2.
With HSNG, the “one-hybrid fitness for binding NBS DNA” value is at most 0.2.
In the case of AITR it was at most 0.2; in that of LCHC, at most 0.2.
Regarding CPTF, the “one-hybrid fitness for binding NBS DNA” value was at most 0.2.
As for TRQC, the figure is at most 0.2; as for RPDS, at most 0.2; as for RFAN, at most 0.2.
In the case of MLVG it was at most 0.2.
In the case of AENK it was at most 0.2; in that of AIGG, at most 0.2; in that of MNRR, at most 0.2.
Regarding GSGF, the “one-hybrid fitness for binding NBS DNA” value is at most 0.2.
Consider FKQT, for which the “one-hybrid fitness for binding NBS DNA” value was at most 0.2.
As for NRPN, the figure is at most 0.2; as for GRGF, at most 0.2; as for MYLV, at most 0.2.
As for CNRD, the “one-hybrid fitness for binding NBS DNA” value was at most 0.2.
As for RHKE, the figure is at most 0.2; as for RLMW, at most 0.2.
As to RTTA, the “one-hybrid fitness for binding NBS DNA” value is 0.252.
In the case of WVSC it was at most 0.2; in that of RSVC, at most 0.2; in that of CPRR, at most 0.2.
As for EAPL, the figure is at most 0.2; as for RFYM, at most 0.2.
In the case of SQWR it was at most 0.2; in that of EVII, at most 0.2; in that of LFAP, at most 0.2.
With GEST, the “one-hybrid fitness for binding NBS DNA” value is at most 0.2.
As for QHHA, the figure is 0.238; as for GARD, at most 0.2.
As for NVTT, the figure is at most 0.2.
In the case of PRER, the “one-hybrid fitness for binding NBS DNA” value is at most 0.2.
In the case of FVIV it was at most 0.2; in that of TKHG, at most 0.2.
In the case of AIVQ it was at most 0.2; in that of QDPY, at most 0.2.
As for HTAG, the figure is at most 0.2.
With RSPR, the “one-hybrid fitness for binding NBS DNA” value was at most 0.2.
On to VYNL, for which the “one-hybrid fitness for binding NBS DNA” value is at most 0.2.
In the case of SVDR it was at most 0.2; in that of WGSW, at most 0.2.
For the variant REIT, the “one-hybrid fitness for binding NBS DNA” value was at most 0.2.
As to TYTT, the “one-hybrid fitness for binding NBS DNA” value was at most 0.2.
With IEHY, the “one-hybrid fitness for binding NBS DNA” value is at most 0.2.
In the case of DTDF it was at most 0.2; in that of NQHG, at most 0.2; in that of PESG, at most 0.2.
As for EECT, the figure is at most 0.2; as for SPEC, at most 0.2.
As for SYFR, the figure is at most 0.2; as for YRFL, at most 0.2; as for AVIF, at most 0.2.
Regarding FHPC, the “one-hybrid fitness for binding NBS DNA” value is at most 0.2.
In the case of QLDE it was at most 0.2.
As for VSRQ, the figure is at most 0.2; as for QMSW, at most 0.2; as for AWEF, at most 0.2.
In the case of RNIC it was at most 0.2; in that of TIRF, at most 0.2.
For the variant FMSS, the “one-hybrid fitness for binding NBS DNA” value was at most 0.2.
For the variant LHLV, the “one-hybrid fitness for binding NBS DNA” value was at most 0.2.
In the case of RCFK it was at most 0.2; in that of AVFC, at most 0.2; in that of HNST, at most 0.2.
In the case of QCNL it was at most 0.2.
In the case of RVTS it was 0.392; in that of QRLR, 0.945.
Turning to RHGM, the “one-hybrid fitness for binding NBS DNA” value is at most 0.2.
As for AIHF, the figure is at most 0.2; as for TPDT, at most 0.2; as for RETY, at most 0.2.
As to YSVA, the “one-hybrid fitness for binding NBS DNA” value is at most 0.2.
Consider RCTF, for which the “one-hybrid fitness for binding NBS DNA” value is at most 0.2.
In the case of WMAW it was at most 0.2; in that of ALIG, at most 0.2; in that of FGIR, at most 0.2.
As for THSM, the figure is at most 0.2; as for VADT, at most 0.2; as for YMTG, at most 0.2.
As for MLTT, the figure is at most 0.2.
For the variant FTYK, the “one-hybrid fitness for binding NBS DNA” value is at most 0.2.
In the case of VLGA it was at most 0.2; in that of FHSG, at most 0.2; in that of ACVS, at most 0.2.
As for LPLF, the figure is at most 0.2; as for GSIR, at most 0.2; as for CVLS, at most 0.2.
As for LSYG, the figure is at most 0.2; as for VNTW, at most 0.2.
Turning to TQPM, the “one-hybrid fitness for binding NBS DNA” value is at most 0.2.
In the case of NLGP it was at most 0.2.
As for KWQA, the figure is at most 0.2; as for CSKC, at most 0.2.
In the case of SVVR it was at most 0.2; in that of ALVS, at most 0.2.
Take CFSA: the “one-hybrid fitness for binding NBS DNA” value is at most 0.2.
For the variant ALNV, the “one-hybrid fitness for binding NBS DNA” value was at most 0.2.
QMKI: the “one-hybrid fitness for binding NBS DNA” value turned out to be 0.322.
As for AEYG, the figure is at most 0.2; as for NVGL, at most 0.2.
With WVRY, the “one-hybrid fitness for binding NBS DNA” value was at most 0.2.
As to SHWG, the “one-hybrid fitness for binding NBS DNA” value is at most 0.2.
In the case of QITR it was 0.417; in that of RQGA, at most 0.2; in that of GKTT, at most 0.2.
In the case of KHLS it was at most 0.2; in that of NTMV, at most 0.2.
In the case of TSFT it was at most 0.2.
For GMHS, the “one-hybrid fitness for binding NBS DNA” value is at most 0.2.
As for NPEE, the figure is at most 0.2.
CTFG: the “one-hybrid fitness for binding NBS DNA” value is at most 0.2.
In the case of YHAC it was at most 0.2; in that of SVPT, at most 0.2; in that of GRMT, at most 0.2.
As for NCAG, the figure is at most 0.2.
As for RVLE, the figure is at most 0.2.
Take TCIM: the “one-hybrid fitness for binding NBS DNA” value is at most 0.2.
In the case of NMDS it was at most 0.2; in that of DLTI, at most 0.2.
As to THYL, the “one-hybrid fitness for binding NBS DNA” value is at most 0.2.
For the variant VTEG, the “one-hybrid fitness for binding NBS DNA” value was at most 0.2.
As for EDQT, the “one-hybrid fitness for binding NBS DNA” value was at most 0.2.
As for NPQC, the figure is at most 0.2; as for QKRD, 0.268; as for TIIK, at most 0.2.
As for VPPP, the figure is at most 0.2; as for RIQN, at most 0.2.
As for PESN, the figure is at most 0.2; as for AYLF, at most 0.2; as for ICVR, at most 0.2.
On to PHSD, for which the “one-hybrid fitness for binding NBS DNA” value was at most 0.2.
For VYAG, the “one-hybrid fitness for binding NBS DNA” value was at most 0.2.
As for VAGV, the figure is at most 0.2; as for NKNR, 0.227.
As for WRSQ, the figure is at most 0.2; as for AIGC, at most 0.2.
